Assay results as given in PMC6265484, “Homodimerization regulates an endothelial specific signature of the SOX18 transcription factor” (Nucleic Acids Research, 2018).
No constants are given. Whether binding was seen depends on the method and setting. Binding seen in cells or lysates may run through a third protein.

Target: SOX18 homodimer mutant BiFC reporter (NmVENUS155-SOX18SΔ84-205 and CmVENUS155-SOX18SΔ84-205) (UniProt P35713)
Assay: split reporter; mVENUS split at amino acid 155; mRNAs of the two halves co-injected into single-cell zebrafish embryos, live confocal imaging at 4-5 hpf

B1: SOX18 homodimer mutant BiFC reporter (NmVENUS155-SOX18SΔ84-205 and CmVENUS155-SOX18SΔ84-205) (protein, UniProt P35713)
chain: MQRSPPGYGAQDDPPARRDCAWAPGHGAAADTRGLAAGPAALAAPAAPASPPSPQRSPPRSPEPGRYGLSPAGRGERQAADESEFDGLGLPTPERSPLDGLEPGEAAFFPPPAAPEDCALRPFRAPYAPTELSRDPGGCYGAPLAEALRTAPPAAPLAGLYYGTLGTPGPYPGPLSPPPEAPPLESAEPLGPAADLWADVDLTEFDQYLNCSRTRPDAPGLPYHVALAKLGPRAMSCPEESSLISALSDASSAVYYSACISG
  binding: no binding
